Assay results: US5391540A, “Substituted pyridine compounds” (Rohm and Haas Company, priority 1993, dated 1995)
The name of at least one read-out is uncertain. Some ranges recur; such a range may be that of the whole group of compounds.

What was measured:
Experiment in all cases: Post-emergence herbicidal activity (Table C)
Format in all cases: in vivo
Cocklebur = conditions: Cobu, 11.2 kg/ha, 10-14 days
Downy Brome = conditions: Dobr, 11.2 kg/ha, 10-14 days
Morningglory = conditions: Mogl, 11.2 kg/ha, 10-14 days
Velvetleaf = conditions: Vele, 11.2 kg/ha, 10-14 days
Yellow Nutsedge = conditions: Yens, 11.2 kg/ha, 10-14 days
Annual Bluegrass = conditions: Anbg, 11.2 kg/ha, 10-14 days
Seedling Johnsongrass = conditions: Sejg, 11.2 kg/ha, 10-14 days
Barnyardgrass = conditions: Bygr, 11.2 kg/ha, 10-14 days
Indian Mustard = conditions: Inmu, 11.2 kg/ha, 10-14 days
Wild Buckwheat = conditions: Wibw, 11.2 kg/ha, 10-14 days

Measured: post-emergent herbicidal activity index

COC(=O)c1c(OC)nc(C(F)(F)F)c(C(=O)n2cc([N+](=O)[O-])cn2)c1CC(C)C [Compound 101, 3-pyridinecarboxylic acid, 2-methoxy-4-(2-methylpropyl)-5-[(4-nitro-1H-pyrazo1-1-yl)carbonyl]-6-(trifluoromethyl)-, methyl ester]
1 (25-49% inhibition): Wild Buckwheat
2 (50-74% inhibition): Seedling Johnsongrass | Indian Mustard
0 (0-24% inhibition): all other assays above

COC(=O)c1c(OC)nc(C(F)(F)F)c(C(=O)n2ccc(F)n2)c1CC(C)C [Compound 102, 3-pyridinecarboxylic acid, 5-[(3-fluoro-1H-pyrazo1-1-yl)carbonyl]-2-methoxy-4-(2-methylpropyl)-6-(trifluoromethyl)-, methyl ester]
0 (0-24% inhibition): Downy Brome | Yellow Nutsedge | Annual Bluegrass
2 (50-74% inhibition): all other assays above

COC(=O)c1c(OC)nc(C(F)(F)F)c(NC(=O)CCCBr)c1CC(C)C [Compound 120, 3-pyridinecarboxylic acid, 5-[(4-bromo-1-oxobutyl)amino]-2-methoxy-4-(2-methylpropyl)-6-(trifluoromethyl)-, methyl ester]
1 (25-49% inhibition): Cocklebur | Morningglory | Indian Mustard
2 (50-74% inhibition): Seedling Johnsongrass | Barnyardgrass | Wild Buckwheat
0 (0-24% inhibition): all other assays above

COC(=O)c1c(OC)nc(C(F)(F)F)c(C(=O)NCCCBr)c1CC(C)C [Compound 97, 3-pyridinecarboxylic acid, 5-[[(3-bromopropyl)amino)carbonyl]-2-methoxy-4-(2-methylpropyl)-6-(trifluoromethyl)-, methyl ester]
0 (0-24% inhibition): Downy Brome | Yellow Nutsedge | Annual Bluegrass
1 (25-49% inhibition): Cocklebur
2 (50-74% inhibition): all other assays above

COc1nc(C(F)(F)F)c(CO)c(CC(C)C)c1C(=O)SC [Compound 134, 3-pyridinecarbothioic acid, 5-(hydroxymethyl)-2-methoxy-4-(2-methylpropyl)-6-(trifluoromethyl)-, S-methyl ester]
0 (0-24% inhibition): all assays above

COC(=O)c1c(OC)nc(C(F)(F)F)c(C(=O)n2cc(C#N)cn2)c1CC(C)C [Compound 111, 3-pyridinecarboxylic acid, 5-[(4-cyano-1H-pyrazo1-1-yl)carbonyl]-2-methoxy-4-(2-methylpropyl)-6-(trifluoromethyl)-, methyl ester]
0 (0-24% inhibition): Downy Brome | Yellow Nutsedge | Annual Bluegrass
2 (50-74% inhibition): all other assays above

COC(=O)c1c(OC)nc(C(F)(F)F)c(C(=O)n2cc(NC(C)=O)cn2)c1CC(C)C [Compound 107, 3-pyridinecarboxylic acid, 5-[[4-(acetylamino)-1H-pyrazol-1-yl]carbonyl]-2-methoxy-4-(2-methylpropyl)-6-(trifluoromethyl)-, methyl ester]
2 (50-74% inhibition): Velvetleaf | Wild Buckwheat
1 (25-49% inhibition): Cocklebur
0 (0-24% inhibition): all other assays above

COC(=O)c1c(OC)nc(C(F)(F)F)c(-c2nnco2)c1CC(C)C [Compound 125, 3-pyridinecarboxylic acid, 2-methoxy-4-(2-methylpropyl)-5-(1,3,4-oxadiazo1-2-yl)-6-(trifluoromethyl)-, methyl ester]
1 (25-49% inhibition): Seedling Johnsongrass | Barnyardgrass
0 (0-24% inhibition): all other assays above
